Laboratory results taken from PubChem BioAssay AID624296 (National Center for Advancing Translational Sciences (NCATS), 2012).
In all, about 350,000 compounds went through this assay and about 9,900 (2.8%) were called active. Inconclusive means that the source gave no clear call. Such entries were picked first, then a sample of the others. Calls come from the whole dose curve; as a rule, active = well fitted activation curve with a large enough effect; inconclusive = small, poorly fitted or top-dose-only effect; inactive = no such curve, though single readings can be large or run the other way. Potencies of inconclusive entries are left out as doubtful fits.

assay: A quantitative high throughput screen for small molecules that induce DNA re-replication in MCF 10a normal breast cells.; note: nearly all actives have a fitted effect of over 50% in size; conditions: MCF 10A DNA re-replication, Hoechst nuclear intensity, 48 h; series mostly up to 46.1 µM
Potency is the fitted concentration of half-maximal effect; tags give direction and shape of the fitted curve.

SMILES	Potency
Cc1ccc(C)c(OCC(O)CN2CCCCC2C)c1 (stereo unspecified)	inactive
S=c1sc2ccccc2n1CCc1ccncc1	inactive
CC(/C=C/c1cccc([N+](=O)[O-])c1)=N\NC(=O)c1ccncc1	inconclusive [activator, single point]
COc1ccc(Cc2[nH]n3c(=O)cc(C(C)C)nc3c2-c2ccccc2)cc1	active: 2.59 µM
O=C(COC(=O)c1ccc(S(=O)(=O)N2CCOCC2)cc1)Nc1ccccc1OC(F)F	inactive
N#CC(CCc1ccc([N+](=O)[O-])cc1)(CCc1ccc([N+](=O)[O-])cc1)C(N)=O	inconclusive [activator, partial curve]
CCCCCCCCCCCCCCCCOCCOCCOCCOCCOCCOCCOCCOCCOCCOCCOCCOCCOCCOCCOCCOCCOCCOCCOCCOCCO	inconclusive [activator, full curve]
Cc1ccc(CCC2C3=C(CCCC3=O)OC3=C2C(=O)CCC3)cc1	inactive
COc1cc(-c2cc3nc4ccccc4n3c(N)c2C#N)cc(OC)c1OC	inconclusive [activator, partial curve]
C=CCNc1cc(C)oc(=O)c1C(=O)CCC	inconclusive [activator, single point]
CCOC(=O)c1sc2c(c1C)c(=O)n(Cc1ccccc1)c(=O)n2CCN(C)C	inactive
O=C(Nc1ncc([N+](=O)[O-])s1)C1CC(=O)N(c2ccc(F)cc2)C1 (stereo unspecified)	inconclusive [activator, full curve, poor fit]
CCC(=O)N1CCN(c2ccnc3cc(Cl)ccc23)CC1	inactive
Cc1cc(C)c(Cn2c3ccccc3c3cnn(CC(=O)NCc4ccccn4)c(=O)c32)c(C)c1	inconclusive [activator, single point]
CCCCC(=O)N(c1ccc(C)c(C)c1)C1C=CS(=O)(=O)C1 (stereo unspecified)	inconclusive [activator, single point]
O=[N+]([O-])c1cccc(C(=Nc2ccccc2)NO)c1	inactive
N#Cc1c(C(F)(F)F)cc(-c2ccc(Cl)cc2)nc1SCC(=O)O	inactive
O=C(CSc1ccc2c(c1)OCCO2)NCCc1ccc(Cl)cc1Cl	inactive
COc1ccccc1C1/C(=C(/O)c2ccccc2)C(=O)C(=O)N1CC(C)C (stereo unspecified)	inconclusive [activator, single point]
COc1ccc(NC(=O)CS(=O)CC(=O)Nc2cccc3cccnc23)cc1 (stereo unspecified)	inconclusive [activator, single point]
CS(=O)(=O)NCCNc1ncc(C(F)(F)F)cc1Cl	inactive
